{
  "source": "PubChem BioAssay AID686978",
  "about": "(National Center for Advancing Translational Sciences (NCATS), 2013)",
  "note": "Several values for one entry are separate records, joined by “and”; a condition that tells them apart may be missing. Equal values may be shown once. About 64,000 (15%) of roughly 420,000 compounds were called active. The inconclusive results got no clear call from the source; some entries with a clear call stand among them for comparison. The call rests on the fitted dose curve; in most records, active means well fitted inhibition curve with a large enough effect; inconclusive means small, poorly fitted or top-dose-only effect; inactive means flat fitted curve, though single readings scatter. Where the call is inconclusive, the potency comes from a doubtful curve fit.",
  "data": [
    {"assay": "qHTS for Inhibitors of human tyrosyl-DNA phosphodiesterase 1 (TDP1): qHTS in cells in absence of CPT; further: nearly all actives have a fitted effect of over 55% in size; further: potency means the concentration at half of the fitted maximal effect; tags describe the fitted curve by direction and shape; on activity change, negative = growth inhibition: on the % scale 0 is the no-effect control and ±100 the full control effect", "details": "DT40 Tdp1-/- hTDP1 cells, no CPT, ATP luminescence, 48 h; activity change, negative = growth inhibition: at 46.2 µM (top of the series) unless noted", "outline": "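Chicken DT40 Tdp1-/- cells complemented with human TDP1, screened without camptothecin (DMSO vehicle only), 400 cells/well. Compounds pin-transferred, cells incubated at 37 °C for at least 48 hr. Growth read as ATP-dependent luminescence (CellTiter-Glo, 30 min at RT).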", "values": [
      {"compound": "COc1ccc(C(=O)COC(=O)C2CCCN2C(=O)C23CC4CC(CC(C4)C2)C3)cc1", "note": "(configuration not stated)", "activity change, negative = growth inhibition": "inactive: -24.3%"},
      {"compound": "O=C(c1ccc(Cl)c(S(=O)(=O)N2CCCC2)c1)N1CCN(c2ccccc2)CC1", "Potency": "inconclusive: 23.1 µM [inhibitor, single point]"},
      {"compound": "COc1cccc(CN(C)C(=O)c2cc(S(=O)(=O)NCc3ccccc3)ccc2C)c1OC", "Potency": "inconclusive: 29.1 µM [inhibitor, single point]"},
      {"compound": "CCN(CC)C(=O)C1=C(C)N(CCC2=CCCCC2)C(=O)C(CC(=O)NCCCCc2ccccc2)C1", "note": "(configuration not stated)", "Potency": "inconclusive: 18.4 µM [inhibitor, single point]"},
      {"compound": "Clc1ccc(Cn2ncc3c(NCc4cccnc4)ncnc32)cc1", "Potency": "active: 20.6 µM"},
      {"compound": "CNC(=S)NNC(=O)c1noc(C)c1C(=O)N1CCN(C(c2ccccc2)c2ccccc2)CC1", "activity change, negative = growth inhibition": "inactive: -5.89%"},
      {"compound": "Cc1ccc(/C=N/N2CCN(Cc3ccccc3)CC2)cc1", "Potency": "inconclusive: 29.1 µM [inhibitor, single point]"},
      {"compound": "Cc1cc(C)cc(NC(=O)Nc2nnc(N(C)C3CCCCC3)s2)c1", "Potency": "inconclusive: 25.9 µM [inhibitor, single point]"},
      {"compound": "Nc1ccc2nc(-c3ccc(-c4nc5ccc(N)cc5[nH]4)cc3)[nH]c2c1", "Potency": "inconclusive: 5.8 µM [inhibitor, partial curve, poor fit]"},
      {"compound": "CC(C)Cc1nc2sc3c(=O)n(N)cnc3c2c2c1COC(C)(C)C2", "Potency": "inconclusive: 18.4 µM [inhibitor, partial curve]"},
      {"compound": "Cc1ccc(/C=C/C(=O)c2ccc(C)cc2)cc1", "Potency": "inconclusive: 23.1 µM [inhibitor, single point]"},
      {"compound": "Cc1nc2nc(SCC(=O)NCCCN3CCCCCC3)nn2c(C)c1Cc1ccccc1Cl", "Potency": "inconclusive: 29.1 µM [inhibitor, single point]"},
      {"compound": "Cc1cccc(C(=O)N[C@H](C(=O)Nc2cccc(S(=O)(=O)N3CCCC3)c2)C(C)C)c1", "Potency": "inconclusive: 29.1 µM [inhibitor, single point]"},
      {"compound": "COC(=O)c1c(NC(=O)CN2CCC3(O)CCCCC3C2c2ccccc2OC)sc(C)c1C", "note": "(configuration not stated)", "Potency": "inconclusive: 14.6 µM [inhibitor, partial curve, poor fit]"},
      {"compound": "C=CCn1c(/N=C/c2ccc3c(c2)OCO3)nc2ccccc21", "activity change, negative = growth inhibition": "inactive: 1.22%"},
      {"compound": "CC(C)COc1ccc(-c2nn(-c3ccccc3)cc2C(=O)Nc2nccs2)cc1", "Potency": "inconclusive: 29.1 µM [inhibitor, single point]"},
      {"compound": "COc1ccc(C(=O)NCCc2ccc(C)cc2)cc1OC1CCN(C(C)=O)CC1", "Potency": "inconclusive: 18.4 µM [inhibitor, single point]"},
      {"compound": "CC[C@@H]1C=C(C(=O)O)[C@H](c2ccc(Cl)cc2)N1S(=O)(=O)c1ccc(C)cc1", "activity change, negative = growth inhibition": "inactive: -6.95%"},
      {"compound": "Cc1cc(/C=N/NC(N)=S)c(C)n1-c1ccc(Br)cc1", "Potency": "active: 8.2 µM"},
      {"compound": "Cc1ccc(S(=O)(=O)C2C(=O)N(C)C3(C)CC2c2ccccc2O3)cc1C", "note": "(configuration not stated)", "Potency": "inconclusive: 14.6 µM [inhibitor, single point]"},
      {"compound": "CCOc1ccc(CCNc2nc3ccccc3n3c(C)nnc23)cc1OCC", "Potency": "inactive and inconclusive: 7.31 µM [inhibitor, partial curve]"},
      {"compound": "Fc1ccc(-c2n[nH]c(=S)n2/N=C/c2c[nH]c3ccccc23)cc1", "Potency": "active: 6.51 µM"},
      {"compound": "COc1ccc2sc(N(Cc3cccnc3)C(=O)COc3ccccc3)nc2c1", "Potency": "inconclusive: 29.1 µM [inhibitor, single point]"},
      {"compound": "CC(=O)c1ccc(N=Nc2c(C)[nH]n(-c3ccccc3)c2=O)cc1", "Potency": "inconclusive: 29.1 µM [inhibitor, single point]"},
      {"compound": "COc1ccc(C(=O)Nc2nnc(C(C)C)s2)cc1OC", "activity change, negative = growth inhibition": "inactive: -21%"},
      {"compound": "Cc1cc(S(=O)(=O)N2CCN(c3ccccn3)CC2)c(C)cc1Cl", "Potency": "inconclusive: 25.9 µM [inhibitor, single point]"},
      {"compound": "CCOC(=O)NN1C(=O)c2ccccc2NC1c1ccc(N(C)C)cc1", "note": "(configuration not stated)", "Potency": "inconclusive: 29.1 µM [inhibitor, partial curve]"},
      {"compound": "Cc1ccc(-n2ncc(C(=O)Nc3cc(Cl)cc(Cl)c3)c2C2CCNCC2)cc1C", "Potency": "inconclusive: 20.6 µM [inhibitor, single point]"},
      {"compound": "CC1CN(C(=O)c2ccc(S(=O)(=O)Nc3cccc(C(F)(F)F)c3)cc2)CC(C)O1", "note": "(configuration not stated)", "Potency": "inconclusive: 25.9 µM [inhibitor, single point]"},
      {"compound": "CCn1cnc2c(=O)oc3ccc(S(=O)(=O)Nc4ccc(OC)cc4)cc3c21", "Potency": "inconclusive: 29.1 µM [inhibitor, single point]"},
      {"compound": "CC(C)COc1ccc(-c2nn(-c3ccccc3)cc2/C=C2/SC(=S)N(CC(=O)O)C2=O)cc1", "Potency": "active: 9.2 µM"},
      {"compound": "Cc1nc(Sc2ccc(Cl)cc2)c(C#N)c(C)c1[N+](=O)[O-]", "Potency": "active: 10.3 µM"},
      {"compound": "COc1ccc(CCNC(=O)c2ccc(Cn3c(=O)c4ccccc4n(Cc4cccc(C)c4)c3=O)cc2)cc1OC", "Potency": "inconclusive: 10.3 µM [inhibitor, partial curve]"},
      {"compound": "CC1=C(C(=O)N(C(C)C)C(C)C)CC(CC(=O)NCC2CCCCC2)C(=O)N1Cc1ccc(C(C)(C)C)cc1", "note": "(configuration not stated)", "Potency": "active: 18.7 µM"},
      {"compound": "Cc1cc(Br)cc2c(C(=O)NCC3CCCO3)cc(-c3ccccc3)nc12", "note": "(configuration not stated)", "Potency": "inconclusive: 20.6 µM [inhibitor, single point]"},
      {"compound": "O=C(COC(=O)C1COc2ccccc2O1)Nc1cccc(F)c1", "note": "(configuration not stated)", "activity change, negative = growth inhibition": "inactive: 14%"},
      {"compound": "O=C(Nc1nnc(C2CC2)o1)c1ccc(S(=O)(=O)N2CCCCC2)cc1", "Potency": "inconclusive: 23.1 µM [inhibitor, single point]"},
      {"compound": "O=C1CC(N2CCCc3ccccc32)C(=O)N1c1ccccc1Cl", "note": "(configuration not stated)", "activity change, negative = growth inhibition": "inactive: -11.5%"},
      {"compound": "CC(=O)c1ccc(NS(=O)(=O)c2ccc(-c3cnc(C4CC4)o3)cc2)cc1", "Potency": "inconclusive: 29.1 µM [inhibitor, single point]"},
      {"compound": "Cc1ccc(NC(=O)c2cc3nc(-c4ccccc4)cc(-c4ccccc4)n3n2)cc1", "Potency": "inconclusive: 2.31 µM [inhibitor, full curve, poor fit]"},
      {"compound": "CC(C)C(c1nnnn1Cc1ccc(F)cc1)N1CCSCC1", "note": "(configuration not stated)", "activity change, negative = growth inhibition": "inconclusive: -31.8% [inhibitor]"},
      {"compound": "COc1ccc(CNc2ccnc(-c3ccccc3C(F)(F)F)n2)c(OC)c1", "Potency": "inconclusive: 23.1 µM [inhibitor, single point]"},
      {"compound": "CCOC1=C2[C@H](c3ccc(CC)cc3)N(S(=O)(=O)c3ccc(C)cc3)C[C@H]2C(C#N)(C#N)C(C#N)(C#N)C1", "Potency": "active: 3.26 µM"},
      {"compound": "Cc1[nH][nH]c(=O)c1C(c1c(C)[nH][nH]c1=O)c1cn(C)c2ccccc12", "Potency": "inconclusive: 32.6 µM [inhibitor, single point]"},
      {"compound": "CCOC(=O)c1c(C)[nH]c(C(=O)OCC(=O)NCc2ccccc2)c1C", "Potency": "inconclusive: 29.1 µM [inhibitor, single point]"},
      {"compound": "COc1ccc(NC(=O)CN(C)S(=O)(=O)c2ccc(Br)s2)cc1OC", "activity change, negative = growth inhibition": "inactive: -24.3%"},
      {"compound": "CSCCC(C(=O)NC(C)(C)C)n1c(-c2cccc(NC(C)=O)c2)nc2ccccc21", "note": "(configuration not stated)", "Potency": "inconclusive: 18.4 µM [inhibitor, single point]"},
      {"compound": "O=C(/C=C/c1ccccc1)OCC(=O)c1c[nH]c2ccccc12", "Potency": "inconclusive: 18.4 µM [inhibitor, single point]"},
      {"compound": "COc1ccccc1Cc1nc2ccccc2nc1SCC(=O)Nc1cc(Cl)ccc1OC", "Potency": "inconclusive: 18.4 µM [inhibitor, single point]"},
      {"compound": "Cc1cc(C)nc(SC/C=C/c2ccccc2)n1", "activity change, negative = growth inhibition": "inactive: -29.5%"},
      {"compound": "C=CCSc1nnc(NC(=O)C2CC(=O)N(Cc3ccc(C)cc3)C2)s1", "note": "(configuration not stated)", "activity change, negative = growth inhibition": "inactive: 19.4%"},
      {"compound": "O=C(NC1CCCCC1)C1(c2ccccc2)CC1(Cl)Cl", "note": "(configuration not stated)", "Potency": "inconclusive: 29.1 µM [inhibitor, single point]"},
      {"compound": "COC(=O)C1=CN(c2ccc(Oc3ccccc3)cc2)C(N)=C(C#N)C1c1ccccc1", "note": "(configuration not stated)", "Potency": "active: 14.6 µM"},
      {"compound": "CCOC(=O)C1CCN(c2nc(-c3ccccc3)nc3c2oc2ccccc23)CC1", "Potency": "inconclusive: 32.6 µM [inhibitor, partial curve, poor fit]"},
      {"compound": "COc1ccc(-c2cn(-c3ccc(C)c(Cl)c3)c(=S)[nH]2)cc1OC", "Potency": "inconclusive: 20.6 µM [inhibitor, single point]"},
      {"compound": "CCOc1ccccc1Nc1nc(-c2sc(NC(=O)c3cccc(Cl)c3)nc2C)cs1", "Potency": "inconclusive: 29.1 µM [inhibitor, single point]"},
      {"compound": "COCCNC(=O)CSc1nc(-c2ccccc2)[nH]c1-c1ccc(OC)cc1", "Potency": "inconclusive: 20.6 µM [inhibitor, single point]"},
      {"compound": "N#Cc1nc(-c2ccccc2)oc1NCCCn1ccnc1", "activity change, negative = growth inhibition": "inactive: 15.1%"},
      {"compound": "CCOC(=O)c1c(S(=O)(=O)N2CCC(C(=O)Nc3ccc(C)cc3C)CC2)c(C)n(C)c1C", "activity change, negative = growth inhibition": "inactive: -16.8%"},
      {"compound": "COc1ccc(NC(=O)Nc2cccc([N+](=O)[O-])c2)cc1Cl", "Potency": "active: 9.2 µM"},
      {"compound": "COc1ccc(NC(=S)N2CCN(C(=O)C3CCCO3)CC2)c(OC)c1", "note": "(configuration not stated)", "activity change, negative = growth inhibition": "inactive: -2%"},
      {"compound": "CCc1ccccc1NC(=O)c1nnn(Cc2ccc(Cl)cc2)c1N", "Potency": "active: 13 µM"},
      {"compound": "Cc1ccc(/C=N/n2c(-c3ccco3)n[nH]c2=S)s1", "Potency": "inconclusive: 6.51 µM [inhibitor, single point]"},
      {"compound": "COc1cccc(-n2c(SCC(=O)Nc3nnc(C)s3)nc3c([nH]c4ccccc43)c2=O)c1", "Potency": "inconclusive: 29.1 µM [inhibitor, single point]"},
      {"compound": "O=C(CN1C(=O)NC2(CCCC2)C1=O)N1CCN(S(=O)(=O)c2ccccc2)CC1", "activity change, negative = growth inhibition": "inactive: -7.8%"},
      {"compound": "Cc1noc(C)c1-c1ccc(C(=O)Nc2ccc(C(C)C)cc2)c2occc12", "Potency": "active: 10.3 µM"},
      {"compound": "COc1ccccc1OC1OC2COC(c3ccco3)OC2C(O)C1NC(C)=O", "note": "(configuration not stated)", "Potency": "inconclusive: 20.6 µM [inhibitor, single point]"}
    ]}
  ]
}
